Drawing on the supplement of paper PMC4967469, this text covers AUC and IC50 for 64 cell lines.

The term IC50 denotes the concentration that inhibits the measured activity by half.

Lines with a small IC50 respond at low doses; fits outside the tested doses are given as limits. AUC is the area under the same curve over the 256-fold range up to the top dose, as a fraction; the more sensitive the line, the further below 1.

Compound in this assay: Cn1c(=O)n(-c2ccc(C(C)(C)C#N)cc2)c2c3cc(-c4cnc5ccccc5c4)ccc3ncc21 [NVP-BEZ235]
Nature of the assay: Viability of human cancer cell lines after 72 h of drug (GDSC screen). Here is the method: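 Human cancer cell lines in 384-well plates, medium with 10% serum, drug for 72 h over a 256-fold dose range (nine 2-fold or five 4-fold steps up to the top dose). Adherent lines were fixed and stained with the nucleic acid dye Syto60, suspension lines read with resazurin; signal relative to control wells, capped at 0 and 100%. One two-parameter sigmoid per drug and line, fitted in a mixed model over all curves with the slope shared within a line.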

As to “KYSE-450 (oesophagus, adherent, top dose 0.25 µM)”, the AUC came to 0.712 and the IC50 was determined as 59.5 nM.
The matching figures for “KYSE-510 (oesophagus, adherent, top dose 0.25 µM)”: 0.708 and 53.5 nM.
The corresponding values for “KYSE-520 (oesophagus, adherent, top dose 0.25 µM)” are 0.755 and 113 nM.
The matching figures for “L-363 (myeloma, suspension, top dose 0.25 µM)”: 0.408 and 9.08 nM.
In the case of “L-428 (Hodgkin lymphoma, suspension, top dose 0.25 µM)”, the AUC is 0.757 and the IC50 is 76.9 nM.
The matching figures for “L-540 (Hodgkin lymphoma, suspension, top dose 0.25 µM)”: 0.694 and 50.8 nM.
The corresponding values for “L-1236 (Hodgkin lymphoma, suspension, top dose 0.25 µM)” are 0.443 and 11.2 nM.
The corresponding values for “LAMA-84 (chronic myeloid leukaemia, suspension, top dose 0.25 µM)” are 0.577 and 25.5 nM.
On to “LAN-6 (neuroblastoma, adherent, top dose 0.25 µM)”, for which the AUC turned out to be 0.968 and the IC50 was above 250 nM.
The matching figures for “LB373-MEL-D (melanoma, adherent, top dose 0.25 µM)”: 0.978 and above 250 nM.
The corresponding values for “LB647-SCLC (small cell lung carcinoma, semi-adherent, top dose 0.25 µM)” are 0.812 and 154 nM.
With “LB771-HNC (head and neck, adherent, top dose 0.25 µM)”, the AUC turned out to be 0.839 and the half-maximal inhibitory concentration (IC50) stood at 236 nM.
The corresponding values for “LB831-BLC (bladder, adherent, top dose 0.25 µM)” are 0.793 and 116 nM.
The matching figures for “LB996-RCC (kidney, adherent, top dose 2 µM)”: 0.367 and 50.5 nM.
Turning to “LB1047-RCC (kidney, adherent, top dose 0.25 µM)”, the AUC worked out at 0.653 and the IC50 is 44.1 nM.
The matching figures for “LB2518-MEL (melanoma, adherent, top dose 0.25 µM)”: 0.803 and 132 nM.
For “LC4-1 (lymphoblastic leukaemia, suspension, top dose 0.25 µM)”, the AUC turned out to be 0.911 and the IC50 was above 250 nM.
The matching figures for “LC-1-sq (lung squamous cell carcinoma, adherent, top dose 0.25 µM)”: 0.917 and above 250 nM.
The matching figures for “LC-2-ad (lung adenocarcinoma, adherent, top dose 0.25 µM)”: 0.742 and 78.4 nM.
Regarding “LCLC-97TM1 (large cell lung carcinoma, adherent, top dose 0.25 µM)”, the AUC was 0.735 and the IC50 worked out at 79.1 nM.
Regarding “LCLC-103H (large cell lung carcinoma, adherent, top dose 2 µM)”, the AUC was found to be 0.546 and the IC50 was found to be 164 nM.
The matching figures for “LK-2 (lung squamous cell carcinoma, adherent, top dose 0.25 µM)”: 0.745 and 74.8 nM.
In the case of “LN-18 (glioma, adherent, top dose 0.25 µM)”, the AUC is 0.76 and the concentration for half-maximal inhibition (IC50) came out at 72.9 nM.
“LN-229 (glioma, adherent, top dose 0.25 µM)”: the AUC came out at 0.846 and the concentration for half-maximal inhibition (IC50) was determined as 181 nM.
As for “LN-405 (glioma, adherent, top dose 0.25 µM)”, the AUC came to 0.685 and the IC50 amounted to 59.3 nM.
The corresponding values for “LNCaP-Clone-FGC (prostate, adherent, top dose 0.25 µM)” are 0.638 and 39.9 nM.
Turning to “LNZTA3WT4 (glioma, adherent, top dose 0.25 µM)”, the AUC was 0.744 and the concentration for half-maximal inhibition (IC50) was determined as 76.6 nM.
The matching figures for “LOU-NH91 (lung squamous cell carcinoma, adherent, top dose 0.25 µM)”: 0.725 and 72.9 nM.
The matching figures for “LOUCY (T-cell lymphoblastic leukaemia, suspension, top dose 0.25 µM)”: 0.674 and 43 nM.
“LOXIMVI (melanoma, semi-adherent, top dose 0.25 µM)”: the AUC is 0.51 and the concentration for half-maximal inhibition (IC50) was found to be 16.6 nM.
The corresponding values for “LP-1 (myeloma, suspension, top dose 0.25 µM)” are 0.856 and 150 nM.
The corresponding values for “LS-180 (large intestine, adherent, top dose 0.25 µM)” are 0.716 and 70.5 nM.
The matching figures for “LS-411N (large intestine, adherent, top dose 0.25 µM)”: 0.788 and 137 nM.
On to “LS-513 (large intestine, adherent, top dose 0.25 µM)”, for which the AUC was 0.804 and the IC50 was 131 nM.
The matching figures for “LS-1034 (large intestine, adherent, top dose 0.25 µM)”: 0.891 and above 250 nM.
“LU-65 (large cell lung carcinoma, suspension, top dose 0.25 µM)”: the AUC was 0.987 and the IC50 was above 250 nM.
Take “LU-134-A (small cell lung carcinoma, suspension, top dose 0.25 µM)”: the AUC was found to be 0.84 and the IC50 came to 188 nM.
The corresponding values for “LU-135 (small cell lung carcinoma, suspension, top dose 0.25 µM)” are 0.83 and 122 nM.
The matching figures for “LU-139 (small cell lung carcinoma, suspension, top dose 0.25 µM)”: 0.437 and 10 nM.
With “LU-165 (small cell lung carcinoma, suspension, top dose 0.25 µM)”, the AUC was found to be 0.964 and the IC50 was above 250 nM.
For the cell line “LXF-289 (lung adenocarcinoma, adherent, top dose 0.25 µM)”, the AUC turned out to be 0.581.
With “LoVo (large intestine, adherent, top dose 0.25 µM)”, the AUC was 0.68 and the 50% inhibitory concentration (IC50) amounted to 50.1 nM.
The corresponding values for “M059J (glioma, adherent, top dose 0.25 µM)” are 0.667 and 47.5 nM.
The matching figures for “MC116 (B-cell lymphoma, suspension, top dose 0.25 µM)”: 0.995 and above 250 nM.
The matching figures for “MC-CAR (haematopoietic neoplasm, suspension, top dose 0.25 µM)”: 0.517 and 17.3 nM.
For the cell line “MC-IXC (neuroblastoma, adherent, top dose 0.25 µM)”, the AUC was 0.749 and the IC50 is 63.4 nM.
The matching figures for “MCF7 (breast, adherent, top dose 0.25 µM)”: 0.67 and 47.5 nM.
The matching figures for “MDA-MB-157 (breast, adherent, top dose 0.25 µM)”: 0.665 and 45.7 nM.
The matching figures for “MDA-MB-231 (breast, adherent, top dose 0.25 µM)”: 0.753 and 88.3 nM.
For “MDA-MB-330 (breast, adherent, top dose 0.25 µM)”, the AUC amounted to 0.651 and the IC50 was determined as 43.6 nM.
The matching figures for “MDA-MB-361 (breast, adherent, top dose 0.25 µM)”: 0.721 and 65.8 nM.
The corresponding values for “MDA-MB-415 (breast, adherent, top dose 0.25 µM)” are 0.749 and 106 nM.
Turning to “MDA-MB-436 (breast, adherent, top dose 0.25 µM)”, the AUC was found to be 0.734 and the IC50 was found to be 88.1 nM.
The matching figures for “MDA-MB-453 (breast, adherent, top dose 0.25 µM)”: 0.938 and above 250 nM.
As for “MDA-MB-468 (breast, adherent, top dose 0.25 µM)”, the AUC came to 0.768 and the IC50 is 90.3 nM.
For the cell line “MDST8 (large intestine, adherent, top dose 0.25 µM)”, the AUC was found to be 0.655 and the half-inhibitory concentration (IC50) came to 41.9 nM.
The corresponding values for “ME-1 (acute myeloid leukaemia, suspension, top dose 0.25 µM)” are 0.926 and above 250 nM.
The matching figures for “ME-180 (cervix, adherent, top dose 0.25 µM)”: 0.67 and 47.4 nM.
The corresponding values for “MEG-01 (chronic myeloid leukaemia, suspension, top dose 0.25 µM)” are 0.787 and 102 nM.
With “MEL-HO (melanoma, adherent, top dose 0.25 µM)”, the AUC was determined as 0.57 and the IC50 was 24.3 nM.
The matching figures for “MEL-JUSO (melanoma, adherent, top dose 0.25 µM)”: 0.737 and 81.2 nM.
The corresponding values for “MES-SA (uterus, adherent, top dose 0.25 µM)” are 0.682 and 46.1 nM.
The matching figures for “MFE-280 (endometrium, adherent, top dose 0.25 µM)”: 0.88 and above 250 nM.
In the case of “MFE-296 (endometrium, adherent, top dose 0.25 µM)”, the AUC is 0.593 and the concentration for half-maximal inhibition (IC50) is 28.7 nM.
